According to the supplement of paper PMC10126150:
Sequences with one replicate were seen in a single cluster, so their values are uncertain.

Tested on: ATP
Test: switch fluorescence ratio, 500 uM ATP over buffer (Cy3 cluster intensity, sum of 5 cycles each) (fold (ratio)); higher = stronger signal-on switching upon ATP binding; sequences stand for … in TCGTCGGCAGCGTCAGATGTGTATAAGAGACAGTTTTTTTTTTTTTTTTTTTTTTTTT…TC
Conditions: aptamer strand: ATP DNA aptamer (quencher-CACCTGGGGGAGTATTGCGGAGGAAGG + anchor), 100 nM annealed; ATP concentration: 500 uM; one replicate
Outline: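 Clusters with intensities outside 100-1000 RFU were excluded. The remaining Cy3-labelled switching-strand clusters on a modified Illumina MiSeq flow-cell had been annealed to 100 nM quencher-labelled ATP aptamer and imaged in selection buffer, then after 15 min with 500 uM ATP at 22 °C, for five cycles separated by NaOH stripping and re-annealing. The fluorescence ratio, averaged per switch-domain sequence, is each cluster's summed target-cycle Cy3 intensity over its summed buffer-cycle Cy3 intensity.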
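Note: ATP exposure 15 min at 22 °C before imaging.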

Sequence | switch fluorescence ratio
CGTATATAA | 1.04
CATCATGGCT | 1.01
CGCTAATGTG | 1.06
ATGGCCGCGT | 1.05
ACGTGTACGA | 1.03
TATGCTGCCC | 1.01
AGTCCTGTTG | 0.997
CTCTGGTAGA | 1.02
TACTAGGACC | 1.08
TCCTCTACT | 1.19
CTCGCCCGCT | 1.19
TTGCGCGGTC | 2.07
ACGTCGAATG | 0.986
CTAAGTCGGT | 0.989
TAGTTCTGCC | 1.02
AGTTTCGTTT | 0.989
GGCGATTGTT | 0.984
TCAACACTG | 1.01
AGCCTGCGGA | 0.984
TTACTACACT | 1.35
AGTCACAGGT | 1.14
GGAAGTGGAC | 1.01
AGACTCTTTC | 1.08
TTGGGCTACA | 1.06
CGTGACATGG | 0.857
CCACTTCCCG | 1.33

Sequence | switch fluorescence ratio
CGGGAGGTTG | 0.961
GGCCCTGTTG | 1.02
TATCAGTACA | 1.02
GCTTTGCCTT | 1.04
GGCTATCATG | 0.98
GCTAATGAGT | 1
GGACAACATT | 0.988
CACACTGACC | 1.23
GTTTATAAGA | 0.989
ATACCCGTTT | 1.02
ATATGAATCA | 0.976
ACCCGTTTAA | 1.06
AGTGGCGGGT | 0.983
ATCGTGTGGA | 1.07
AGCCACCCAC | 1.6
GATGGGGGC | 0.949
GATGTACGGC | 1.12
ACGTCGATGT | 0.951
GCATAGACTC | 1.9
CAAAAACACC | 1.09
AATGGACACA | 1
CACGGCAGGC | 1.23
GAGAATACGT | 1.01
AATTCGACTA | 0.959
GAGTTAAGCA | 1.07
ACAAAGAGT | 1

Sequence | switch fluorescence ratio
TTCGCTAGG | 1.8
ACTAGGATGA | 1.01
TTTGAGAAGT | 1.02
CGTTTGCTTC | 0.999
TAGCTGCCCT | 0.976
GGAATCCAA | 0.997
CACTTACATA | 1.26
ATGTATATA | 1.01
GGTTCTTAAT | 1.03
CTTTTCCGAG | 1.19
CAAGGGAGAG | 0.986
ATTAAAGATC | 1.02
AATTTCCTCC | 2.19
TTCTATCTA | 0.986
GTTATATTT | 0.997
GGATTCATAG | 1.02
TTGGCCTCGC | 1
CCAGGAGTTT | 1.05
ACGCTCTGGC | 1.07
ATGGCTATTG | 1.01
TCTGTCAGGC | 1.05
TAGCTAGAAT | 0.985
AAATGGCCCC | 1.08
GAAAGTTGTT | 0.94
CCATGTTTTC | 0.981
AGAAGTGCAC | 0.936

Sequence | switch fluorescence ratio
GGGGCTCGAG | 1.06
CCGTGCCCTG | 1.05
ATGAGCCTCG | 1.03
TCGTACGGAC | 1.23
CACACGCGTC | 1.1
ACACGTCAGC | 1.08
GCCGGCCCCG | 1.01
TTACTCTGTC | 1.03
TGACTCAGGA | 1.05
CGTGGCTGTG | 1.04
AACTTGTGAG | 1.04
AAGTGTCTAC | 0.974
TATTAGGTAG | 1.01
TCATTTAGTT | 1.01
TAGGATCTCG | 1
AGACTCAGCC | 1.14
GAGATAGTT | 1.02
CAAGTCTCAG | 1.02
GATGGAGTA | 1.09
ACAGACTTCG | 1.03
TATTCGCACC | 1.26
TAGCGAAGTC | 1.05
ATTTATATTT | 1.03
TTAGTGTGG | 0.967
GCAATCATGT | 1.04
CATGGTAGGG | 1.01

Sequence | switch fluorescence ratio
CGAGATCAGA | 1.06
GTCAGGTGGG | 1.12
TCGGCTTTGT | 0.957
ACCGAGAGAT | 1.04
AGGCGTCAAG | 1.01
GGTTTCCCGG | 0.972
AGAATAAACA | 1.04
GCCGGCCCTT | 0.974
TATATGAGTG | 1.01
AAAATCCTCT | 1.04
TGTTGATAAC | 1.05
CCAAAGGAGC | 1.02
GGGAGGCGTT | 0.966
TTATACTCTC | 0.998
GGGGGATACC | 1.41
AAATCGATGA | 1.02
GTGCATAGTC | 1.05
GATTCAAATG | 0.987
AAGAATCTAG | 1.04
TACTACAGCG | 1.03
CCGGAATATT | 2.46
AAAGTTGTAA | 0.986
ACCTATTTTG | 1.07
TTTAGGTGG | 0.961
ACTATTCTTT | 1.04
CAATGCACGT | 1.01

Sequence | switch fluorescence ratio
TGTATATACG | 1.04
CGTTCTATCA | 0.988
TGACACAGAT | 1.07
GCAAGGGTCA | 1.07
CAACCTTTTG | 1
GTGTAATGTT | 0.982
ACTTGCGGTC | 1.01
AACGGGGAAT | 1.01
CGAACAGACG | 1.07
GTTCCCACGG | 1.13
TAAAAATCCG | 0.967
CCCATTTATC | 1.05
TTGGATTGGA | 1.02
GAGGGCGGCT | 0.922
CACGCGGACC | 1.4
ATAATTCAAA | 1.02
CCAACACCTT | 1.15
CGTGTCGCAG | 0.995
CGGTTAACGC | 1.04
GGGGTTTGGC | 0.979
CGGCGTAACA | 1.07
AGCGGAACTT | 1.06
CAAATTTCTG | 0.962
TTAGCGGTTT | 1.05
ACTGGGAGCC | 0.972
TGACAGACGG | 1.13

Sequence | switch fluorescence ratio
ACTTTCATT | 1.15
CACGGTGTAC | 1.34
AACGGAGCTG | 1.17
ACGGACGGCG | 1.01
AGATAGTTAT | 0.98
AGAAATAGTT | 0.983
GCGCAAGTTG | 1.06
TCGAATGAG | 1.01
GAGTCCCAT | 1.05
AGGGAGCTTG | 0.982
AACTGCCGGA | 1.01
CTACCCGCGA | 4.09
GTGCTAGTG | 1.09
AGGTTGCAC | 1.04
TTATAGTTAA | 0.99
ATGAAACCCA | 1.04
TTATGAGGTA | 1.01
TCCCCCAGCC | 3.13
TTTTATGGAA | 1
ACCCCTGCCC | 1.17
GTGAATGACT | 0.973
CACCGGGGAC | 1.17
ATGCGTGCGC | 1
ACGTCTGGAA | 1.03
CCAATTGTAA | 1
AATCATCTTC | 0.993

Sequence | switch fluorescence ratio
GGCTGCGGT | 0.978
CTATCGGGCA | 1.02
AGAGGACAGC | 1.02
TCTTGAACCT | 1.81
TTGGTACACG | 1.02
CTCGGTGAA | 1.48
TCCATCGAAA | 1.08
GCGGTATACA | 1.03
TCCGTGACTG | 0.992
AAAGCTTTTG | 1
TGCGGATTGG | 1.02
ATCAAGCTTG | 1.03
GCATTATA | 0.984
TGTAAACGAC | 0.984
TGGAACGTAT | 1
GTGGAGGCTG | 1
GCAGAGGGGC | 0.973
CTCCCCGGCG | 1.05
AATGCTCTGT | 0.999
